Assay results published in PubChem BioAssay AID588591 (National Center for Advancing Translational Sciences (NCATS), 2011).
About 4,700 (1.2%) of roughly 390,000 compounds were called active. The shares of active, inactive and inconclusive entries below differ from those in the screen. The call rests on the fitted dose curve; in most records, active means well fitted inhibition curve with a large enough effect; inconclusive means small, poorly fitted or top-dose-only effect, or another doubt; inactive means no such curve, though single readings can be large or run the other way. A potency beside an inconclusive call is a rough fit, not a confirmed value.
On the % scale 0 is the no-effect control and ±100 the full control effect; potency means the concentration at half of the fitted maximal effect; tags describe the fitted curve by direction and shape.

What follows are compounds tested against DNA polymerase eta (Homo sapiens) (UniProt Q9Y253) (assay: qHTS for Inhibitors of Polymerase Eta). Settings: recombinant Pol eta, fluorescent DNA replication assay; series mostly up to 114 µM; activity change, negative = inhibition: at the top concentration.
UniProt Q9Y253, sequence (Q9Y253 whole entry, looked up): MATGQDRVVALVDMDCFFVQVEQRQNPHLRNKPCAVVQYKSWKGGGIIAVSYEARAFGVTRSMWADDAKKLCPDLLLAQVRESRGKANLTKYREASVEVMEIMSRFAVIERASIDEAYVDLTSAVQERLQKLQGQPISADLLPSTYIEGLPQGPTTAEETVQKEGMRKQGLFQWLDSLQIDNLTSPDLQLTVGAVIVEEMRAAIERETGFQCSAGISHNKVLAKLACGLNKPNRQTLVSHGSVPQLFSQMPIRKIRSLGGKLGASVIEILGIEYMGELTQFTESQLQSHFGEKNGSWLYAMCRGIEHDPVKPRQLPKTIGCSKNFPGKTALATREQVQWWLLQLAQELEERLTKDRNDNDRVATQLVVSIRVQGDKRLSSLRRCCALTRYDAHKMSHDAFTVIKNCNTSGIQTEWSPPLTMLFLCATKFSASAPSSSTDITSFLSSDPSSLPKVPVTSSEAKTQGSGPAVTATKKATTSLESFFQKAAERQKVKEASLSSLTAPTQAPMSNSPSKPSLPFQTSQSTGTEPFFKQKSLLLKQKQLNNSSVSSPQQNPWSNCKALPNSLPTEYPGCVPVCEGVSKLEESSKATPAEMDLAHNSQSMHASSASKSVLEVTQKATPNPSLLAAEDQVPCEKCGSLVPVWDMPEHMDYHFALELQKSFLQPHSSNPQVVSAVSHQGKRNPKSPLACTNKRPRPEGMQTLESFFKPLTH
In short: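 Pol eta at 10 nM preincubated with compounds 15 min at room temperature; reaction started with fluorescent substrate (50 nM final) and read kinetically at 0 and 10 min.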
With `O=C(COc1ccc(C(=O)NCC2CCCO2)cc1)Nc1cccc(C(F)(F)F)c1` (centres undefined) the “activity change, negative = inhibition” value was inactive: -3.15%. For `CC(=O)Nc1ccc2c(c1)-c1ccc(F)cc1C2=O`, the Potency was inconclusive: 31.6 µM [inhibitor, single point]. With `CN(C)c1ccc(NC(=O)c2cc3c(=O)n4ccccc4nc3n2C)cc1` the Potency was inconclusive: 14.1 µM [inhibitor, partial curve, poor fit]. `O=C1CSC(=S)N1c1ccccc1` was tested, and the “activity change, negative = inhibition” value was inactive: -18.1%. For `CCOCCCNC(=O)c1cn(CC(C)C)c(=O)c2c1c1ccccc1n2C`, the Potency was inconclusive: 89.1 µM [inhibitor, partial curve, poor fit]. For `O=C(CCOc1ccccc1)OCC(=O)c1cc2ccccc2o1`, the Potency was inconclusive: 22.4 µM [inhibitor, partial curve]. With `Cn1c(=O)n(C)c2cc(N3CCOCC3)c(NC(=O)c3ccc(C(C)(C)C)cc3)cc21` the “activity change, negative = inhibition” value was inactive: -3.37%. With `CCOCCCn1c(SCC(=O)NCc2ccccc2)nc2c(sc3ccccc32)c1=O` the Potency was inconclusive: 89.1 µM [inhibitor, single point]. In the case of `CN(CC(=O)Nc1ccccc1Cl)C(=O)COC(=O)c1ccc(Cl)nc1`, the Potency is reported as inconclusive: 31.6 µM [inhibitor, partial curve, poor fit]. In the case of `Cc1ccc(N/N=C/c2c(C)c(C#N)c(=O)n(C)c2O)cc1C`, the “activity change, negative = inhibition” value is reported as inactive: -0.993%. For `COc1cc(/C=C2\SC(=S)N(C(Cc3ccccc3)C(=O)O)C2=O)ccc1O` (centres undefined), the Potency was inconclusive: 50.1 µM [inhibitor, partial curve, poor fit]. In the case of `N/C(=C\C(=O)c1cc(Cl)ccc1O)C(Cl)(Cl)Cl`, the Potency is reported as active: 50.1 µM. For `C=CCn1c(SCC(=O)Nc2ccc(O)cc2)nc2sc(C)c(C)c2c1=O`, the Potency was inconclusive: 100 µM [inhibitor, partial curve, poor fit]. With `O=C(COc1ccccc1/C=C\c1[nH]c(=O)[nH]c(=O)c1[N+](=O)[O-])Nc1ccccc1` the Potency was active: 22.4 µM. With `CN(CCc1ccccn1)C(=O)CCC1CCCN(C(=O)NC2CCCCC2)C1` (centres undefined) the Potency was inconclusive: 89.1 µM [inhibitor, single point]. With `Cc1cc(Br)ccc1N=C1NC(=O)CS1` the “activity change, negative = inhibition” value was inactive: -9.48%. In the case of `Brc1ccc(-c2nn3c(-c4ccco4)nnc3s2)o1`, the Potency is reported as inconclusive: 89.1 µM [inhibitor, single point]. With `O=C(/C=C/c1ccco1)NC(=S)Nc1ccc(N2CCOCC2)c(Cl)c1` the Potency was inconclusive: 28.2 µM [inhibitor, partial curve, poor fit]. For `O=C(Cn1ncc(Cl)c(Cl)c1=O)NC(=O)NC1CCCCC1`, the Potency was inconclusive: 22.4 µM [inhibitor, full curve, poor fit]. For `CNc1nc(C(=O)O)nc(N2CCOCC2)n1`, the “activity change, negative = inhibition” value was inactive: -8.31%. For `C=C(C)C(=O)Nc1cccc(C(C)=O)c1`, the Potency was inconclusive: 39.8 µM [inhibitor, single point]. With `COc1ccc([N+](=O)[O-])cc1NC(=O)Nc1ccc(OC)c(OC)c1` the “activity change, negative = inhibition” value was inactive: -9.07%. In the case of `COc1cccc(/C(O)=C/c2nc3ccc(C(=O)NCCc4cccc(C)c4)cc3[nH]c2=O)c1`, the “activity change, negative = inhibition” value is reported as inactive: -17.6%. In the case of `COCCCn1c(Cc2csc(Nc3cccc(Cl)c3)n2)nnc1SCC(=O)OC1CCCCC1`, the Potency is reported as active: 7.94 µM. `CCc1nnc2c(Nc3cc(OC)c(Cl)cc3OC)nc3ccccc3n12` was tested, and the “activity change, negative = inhibition” value was inactive: -20.7%. For `CCOc1c(OC(C)=O)ccc(/C=C2\N=C(SCC)SC2=O)c1[N+](=O)[O-]`, the “activity change, negative = inhibition” value was inactive: -14.1%. In the case of `O=c1[nH]c(/C=C/c2cccnc2)c([N+](=O)[O-])c(=O)[nH]1`, the Potency is reported as inconclusive: 50.1 µM [inhibitor, partial curve, poor fit]. With `COCCn1c(C)cc(O)c(C(c2cccc(F)c2)N2CCN(c3ccccc3)CC2)c1=O` (centres undefined) the “activity change, negative = inhibition” value was inactive: -10.3%. For `CC(=O)Oc1ccc(C(=O)Nc2ccc(C3(C#N)CCCC3)cc2)cc1`, the Potency was inconclusive: 25.1 µM [inhibitor, partial curve, poor fit]. For `O=C(c1ccc(Br)o1)N1N=C(c2ccc(Cl)cc2)CC1c1ccco1` (centres undefined), the Potency was inconclusive: 31.6 µM [inhibitor, partial curve, poor fit]. In the case of `Cc1ccc(C(=O)NCC(=O)OCC(=O)c2ccc(Cl)s2)cc1`, the Potency is reported as inconclusive: 22.4 µM [inhibitor, partial curve, poor fit]. In the case of `CCCN1CCN(CCCNC(=O)c2cc3c(s2)-c2c(C)cccc2OC3)CC1`, the Potency is reported as “inactive”. `O=[N+]([O-])c1ccc(/C=C/C2=NN(c3ccccc3)C(c3ccco3)C2)o1` (centres undefined) was tested, and the Potency was inconclusive: 56.2 µM [inhibitor, partial curve, poor fit]. With `Cc1ccc(NS(=O)(=O)c2cccc3cccnc23)c(Br)c1` the Potency was inconclusive: 79.4 µM [inhibitor, partial curve, poor fit]. With `CCN(CC(=O)Nc1ccc(NC(C)=O)cc1)C(=O)CSc1ncnc2sc(C)c(C)c12` the Potency was inconclusive: 15.8 µM [inhibitor, full curve]. In the case of `CCN(CCCNC(=O)CCc1nc(-c2ccc(C)cc2)no1)c1cccc(C)c1`, the Potency is reported as inconclusive: 50.1 µM [inhibitor, partial curve]. In the case of `O=C(N/N=C/c1cccs1)c1cc(-c2ccc(Cl)s2)[nH]n1`, the Potency is reported as inconclusive: 22.4 µM [inhibitor, full curve]. For `CCCC(=O)N1c2nc(-c3ccco3)nn2C2(CCCCC2)[C@@H]2CCCC[C@@H]21`, the “activity change, negative = inhibition” value was inactive: -11.9%. For `CCC(C)n1c(SCC(=O)Nc2cc(C(C)(C)C)nn2-c2ccccc2)nc2ccccc2c1=O` (centres undefined), the Potency was inconclusive: 79.4 µM [inhibitor, partial curve, poor fit]. For `Cc1ccc(NC(=O)C(C)OC(=O)C2CC3CCCC(C2)C3=O)cc1S(=O)(=O)N1CCOCC1` (centres undefined), the Potency was inconclusive: 50.1 µM [inhibitor, partial curve, poor fit]. In the case of `COCCNc1nnc(SCC(=O)Nc2cc(C)on2)s1`, the “activity change, negative = inhibition” value is reported as inactive: -4.55%. With `O=C(O)c1cc(O)c2c(c1)C(=O)c1cc(O)cc(O)c1C2=O` the Potency was active: 8.91 µM. `COc1ccc(Nc2nc(N)c([N+](=O)[O-])c(NCCO)n2)cc1` was tested, and the Potency was inconclusive: 89.1 µM [inhibitor, partial curve, poor fit]. For `Clc1ccccc1CNCCCSc1nnnn1-c1ccccc1`, the Potency was inconclusive: 79.4 µM [inhibitor, partial curve, poor fit].
